PubChem BioAssay AID504339 (National Center for Advancing Translational Sciences (NCATS), 2011)
Where “and” joins values, the source holds several entries; their conditions need not be identical. Equal entries are not always repeated. The whole screen tested about 390,000 compounds, of which about 17,000 (4.4%) were called active. Inconclusive means that the source gave no clear call. Such entries were picked first, then a sample of the others. The call rests on the fitted dose curve; in most records, active means well fitted inhibition curve with a large enough effect; inconclusive means small, poorly fitted or top-dose-only effect; inactive means no such curve, though single readings can be large or run the other way. A potency beside an inconclusive call is a rough fit, not a confirmed value.

biological target: Lysine-specific demethylase 4A (Homo sapiens) (UniProt O75164); test: qHTS Assay for Inhibitors of JMJD2A-Tudor Domain; conditions: AlphaScreen JMJD2A-Tudor / H3K4me3 peptide binding; activity change, negative = inhibition: at 114 µM (top of the series); further: nearly all actives have a fitted effect of over 50% in size
Sequence of UniProt O75164 (O75164 whole entry, looked up, the tested form may be a part): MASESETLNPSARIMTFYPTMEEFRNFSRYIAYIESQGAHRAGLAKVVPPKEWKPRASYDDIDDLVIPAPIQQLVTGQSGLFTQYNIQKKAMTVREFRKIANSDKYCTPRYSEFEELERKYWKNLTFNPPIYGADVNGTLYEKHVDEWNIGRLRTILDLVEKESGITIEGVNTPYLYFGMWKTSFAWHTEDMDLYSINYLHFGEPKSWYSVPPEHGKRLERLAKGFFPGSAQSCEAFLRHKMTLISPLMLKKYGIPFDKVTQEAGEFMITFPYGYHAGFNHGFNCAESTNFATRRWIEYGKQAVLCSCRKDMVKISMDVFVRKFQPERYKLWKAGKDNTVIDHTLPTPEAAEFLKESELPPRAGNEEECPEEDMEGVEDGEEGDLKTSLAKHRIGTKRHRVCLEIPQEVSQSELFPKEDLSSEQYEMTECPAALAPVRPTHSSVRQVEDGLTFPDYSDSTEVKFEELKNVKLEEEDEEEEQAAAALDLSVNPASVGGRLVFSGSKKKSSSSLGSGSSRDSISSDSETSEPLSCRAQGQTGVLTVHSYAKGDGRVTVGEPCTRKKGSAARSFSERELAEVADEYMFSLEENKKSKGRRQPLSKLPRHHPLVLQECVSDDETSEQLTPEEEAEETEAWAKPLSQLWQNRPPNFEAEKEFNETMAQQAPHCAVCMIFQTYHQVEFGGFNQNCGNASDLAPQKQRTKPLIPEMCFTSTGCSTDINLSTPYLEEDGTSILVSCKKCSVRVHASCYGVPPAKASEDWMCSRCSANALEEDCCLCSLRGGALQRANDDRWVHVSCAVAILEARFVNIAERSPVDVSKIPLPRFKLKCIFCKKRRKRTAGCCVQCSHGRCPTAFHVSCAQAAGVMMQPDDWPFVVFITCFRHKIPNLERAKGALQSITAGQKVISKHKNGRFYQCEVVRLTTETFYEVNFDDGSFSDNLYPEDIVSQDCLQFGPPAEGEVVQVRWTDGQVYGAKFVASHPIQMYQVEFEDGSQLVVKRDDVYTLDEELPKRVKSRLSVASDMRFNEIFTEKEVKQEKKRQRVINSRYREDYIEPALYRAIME
On the % scale 0 is the no-effect control and ±100 the full control effect; potency means the concentration at half of the fitted maximal effect; tags describe the fitted curve by direction and shape.

Row | SMILES | Potency | activity change, negative = inhibition
1 | C#CCOCCOCCOCCNc1nc(N2CCN(C(=O)[C@H]([C@@H](C)CC)n3cc([C@@H](N)CC(C)C)nn3)CC2)nc(N2CCN(C(=O)[C@H](CCCCN)n3cc([C@@H](N)CC(C)C)nn3)CC2)n1 | active: 56.2 µM | –
2 | Cc1ccc(NC(=O)CN(C)CC(=O)Nc2ccc(F)c(Cl)c2)cc1 | active: 14.1 µM | –
3 | CCOC(=O)c1c(CN2CCN(c3ccccc3)CC2)oc2ccc(O)cc12 | inconclusive: 89.1 µM [inhibitor, partial curve] | –
4 | Cc1c(P(=O)(c2ccccc2)c2ccccc2)c2ccccc2n1C | active: 22.4 µM | –
5 | COc1ccc(C(=O)N(Cc2ccco2)Cc2ccco2)c(O)c1 | inconclusive: 17.8 µM [inhibitor, partial curve, poor fit] | –
6 | Cc1cc(/C=N/Nc2nc(N3CCOCC3)nc(N3CCOCC3)n2)c(C)n1-c1ccccc1 | inconclusive: 39.8 µM [inhibitor, partial curve] | –
7 | O=C1NNC(c2ccccc2)=N/C1=C\c1ccccc1Cl | – | inactive: -31.6%
8 | CCn1c(CSCc2ccc(C)cc2)n[nH]c1=S | active: 31.6 µM | –
9 | CC1Sc2ccc(S(=O)(=O)N3CCC(C(=O)N4CCN(C)CC4)CC3)cc2NC1=O (centres undefined) | inconclusive: 35.5 µM [inhibitor, single point] | –
10 | COc1cccc(-c2nc(NCCN3CCOCC3)c3ccccc3n2)c1O | inconclusive: 79.4 µM [inhibitor, partial curve] | –
11 | O=C(NC1CCS(=O)(=O)C1)c1ccccc1Cl (centres undefined) | – | inactive: -0.98%
12 | C#CCOCCOCCOCCNc1nc(N2CCN(C(=O)[C@H](CCC(=O)O)n3cc(CN)nn3)CC2)nc(N2CCN(C(=O)[C@H](CCC(=O)O)n3cc(CN)nn3)CC2)n1 | inconclusive: 89.1 µM [inhibitor, single point] | –
13 | COc1ccc(Nc2nc(NCC3CCCO3)c3ccccc3n2)c(OC)c1 (centres undefined) | inconclusive: 50.1 µM [inhibitor, partial curve, poor fit] | –
14 | O=C(NCCN1CCOCC1)c1ccc(/C=C2\Sc3ccccc3N(Cc3ccccc3F)C2=O)cc1 | inconclusive: 44.7 µM [inhibitor, partial curve] | –
15 | COc1ccc(OC)c(NC(=O)Cn2c(=O)n(CC3CCCO3)c(=O)c3cc(OC)c(OC)cc32)c1 (centres undefined) | inactive | –
16 | O=C(Nc1ccccc1N1CCN(C(=O)c2ccccc2)CC1)c1cc(Br)ccc1Cl | inconclusive: 56.2 µM [inhibitor, partial curve] | –
17 | CCn1cc(Cl)c(C(=O)Nc2cccc(C(F)(F)F)c2)n1 | active: 50.1 µM | –
18 | COc1cccc(/C=N/n2c(COc3ccccc3)n[nH]c2=S)c1OC | active: 28.2 µM | –
19 | CCN1CCC[C@H]1CNC(=O)c1c(O)c(Cl)cc(Cl)c1OC | inconclusive: 89.1 µM [inhibitor, single point] | –
20 | O=C(CSc1ccc2nnc(-c3cccnc3)n2n1)Nc1ccccc1C(F)(F)F | – | inactive: 0%
21 | CN(C)S(=O)(=O)c1cccc(COC(=O)CNC(=O)c2ccc(Br)o2)c1 | – | inactive: -15.2%
22 | CCc1cc(C(=O)N/N=C/c2c(C)[nH]c3ccccc23)cs1 | inconclusive: 70.8 µM [inhibitor, single point] | –
23 | CCCCOC(=O)CSC1=C(C#N)C(c2ccccc2OC)C(C#N)C(=O)N1 (centres undefined) | inconclusive: 89.1 µM [inhibitor, single point] | –

Row | SMILES | Potency | activity change, negative = inhibition
24 | Cc1cc(C)c2c(c1)c(C)cc1nnc(SCC(=O)NCc3ccco3)n12 | inconclusive: 89.1 µM [inhibitor, partial curve] | –
25 | O=C(C[C@H]1C[C@H](C(=O)N2CCCCC2)[C@@]2(CCc3ccccc3)c3[nH]c4cc(-c5ccco5)ccc4c3CCN2C1=O)NCc1cccc(C(F)(F)F)c1 | inconclusive: 10 µM [inhibitor, full curve] | –
26 | COC(=O)c1cc(=O)n(CCc2ccc(OC)cc2)c(=Nc2ccc(F)c(Cl)c2)s1 | inconclusive: 28.2 µM [inhibitor, full curve] | –
27 | CCSc1ccccc1C(=O)Nc1ccc(S(=O)(=O)NC(C)=O)cc1 | active: 50.1 µM | –
28 | COc1ccc2[nH]c3c(c2c1)CCN(C(=O)c1cccc(Cl)c1)C3c1ccc(F)cc1 (centres undefined) | inconclusive: 11.2 µM [inhibitor, full curve] | –
29 | CCN(CC)C(=O)Cn1c(=O)cc(C)c2c(C)nn(-c3ccc(C)cc3)c21 | – | inactive: -19.7%
30 | COc1ccc(N2CCN(C(c3ccccc3)c3nnnn3C(C)C)CC2)cc1 (centres undefined) | inconclusive: 63.1 µM [inhibitor, partial curve] | –
31 | O=C(NC1CCCC1)C(c1cccnc1)N(C(=O)c1csnn1)C1CCCC1 (centres undefined) | – | inactive: -11%
32 | Cc1ccc(N=C2NC(=O)/C(=C/c3cccn3C)S2)cc1 | inconclusive: 50.1 µM [inhibitor, partial curve] | –
33 | CCOC(=O)c1ccc(N=c2sc(C(=O)OC)cc(=O)n2CCCN2CCOCC2)cc1 | inconclusive: 79.4 µM [inhibitor, partial curve] and inconclusive: 56.2 µM [inhibitor, partial curve] | –
34 | Brc1ccc(C=Nc2ccc3c(c2)OCCOCCOCCO3)s1 | – | inactive: -9.76%
35 | Cn1c(CC2Sc3ccccc3NC2=O)nnc1SCC(=O)c1ccc(Cl)cc1 (centres undefined) | active: 25.1 µM | –
36 | CC(C)(C)c1ccc(S(=O)(=O)NNC(=O)c2cc3ccccc3[nH]2)cc1 | inconclusive: 70.8 µM [inhibitor, single point] | –
37 | CN(C)CCN(C(=O)C1CCN(S(=O)(=O)c2cccs2)CC1)c1nc2ccc(F)cc2s1 | inconclusive: 44.7 µM [inhibitor, partial curve, poor fit] | –
38 | O=C(NC(=S)Nc1ccccc1N1CCCC1)c1ccco1 | inconclusive: 56.2 µM [inhibitor, partial curve] | –
39 | COc1ccccc1C(=O)NNC(=O)c1cccc(C)c1 | inconclusive: 11.2 µM [inhibitor, partial curve, poor fit] | –
40 | NS(=O)(=O)c1ccc(Sc2nc3ccccc3s2)c([N+](=O)[O-])c1 | inconclusive: 28.2 µM [inhibitor, partial curve] | –
41 | O=C(CC1C(=O)N(c2ccccc2)C(=O)N1Cc1ccc(F)cc1)Nc1cccc(F)c1 (centres undefined) | – | inactive: -17.9%
42 | C[C@@H]1CN([C@H](C)CO)C(=O)Cc2cc(NC(=O)Nc3ccccc3)ccc2O[C@@H]1CN(C)Cc1ccc2c(c1)OCO2 | inconclusive: 39.8 µM [inhibitor, partial curve] | –
43 | CCOc1ccc(NC(=O)c2ccc3c(c2)CCN3S(=O)(=O)CC)cc1 | inconclusive: 39.8 µM [inhibitor, partial curve] | –
44 | CCOc1cccc(C2C(C(=O)c3ccc(C)o3)=C(O)C(=O)N2Cc2ccncc2)c1 (centres undefined) | inconclusive: 89.1 µM [inhibitor, single point] | –
45 | COc1ccc(-c2cn3cccnc3n2)cc1NC(=O)Nc1ccc(Cl)cc1 | – | inactive: -1.94%
46 | COc1ccc(C(=O)c2oc3ccccc3c2N)cc1 | – | inactive: 4.51%

Row | SMILES | Potency | activity change, negative = inhibition
47 | Cn1nnnc1SCC(=O)Nc1ccccc1Cl | – | inactive: -8.83%
48 | CCn1cc(C(=O)N[C@@H](C)C(=O)OC)c(=O)c2cc3c(cc21)OCO3 | – | inactive: -1.67%
49 | CN(Cc1ccccc1)C1CCN(Cc2ccccc2[N+](=O)[O-])CC1 | active: 11.2 µM | –
50 | COc1ccc(OCC(=O)NNC(=O)c2cccc(S(=O)(=O)N(C)C)c2)cc1 | – | inactive: -3.42%
51 | Cc1ccc(C2C(C(=O)c3ccco3)=C(O)C(=O)N2c2nnc(C)s2)cc1 (centres undefined) | active: 79.4 µM | –
52 | COc1ccc(CCC(=O)Nc2cccc(S(=O)(=O)N3CCCCCC3)c2)cc1OC | inconclusive: 44.7 µM [inhibitor, partial curve, poor fit] | –
53 | CC(C)N(Cc1ccccc1)C(=S)NC(=O)C1(C)CC1(Cl)Cl (centres undefined) | – | inactive: -16.3%
54 | C=CC(=O)N1C/C(=C/c2ccccc2)C(=O)/C(=C\c2ccccc2)C1 | inconclusive: 56.2 µM [inhibitor, partial curve] | –
55 | CC1CC(C)CN(CCOc2ccccc2-c2ccccc2)C1 (centres undefined) | active: 12.6 µM | –
56 | COc1cccc(C2c3c(ncn(-c4ccc(-c5ccccc5)cc4)c3=N)Oc3ccc4ccccc4c32)c1 (centres undefined) | inconclusive: 7.08 µM [inhibitor, full curve, poor fit] | –
57 | CCOc1ccc(C(=O)NC2CC(=O)N(c3ccc(C)cc3)C2)cc1OCC (centres undefined) | – | inactive: -1.3%
58 | COc1ccccc1N(CC(=O)NCc1ccco1)S(=O)(=O)c1ccc(C)cc1 | active: 35.5 µM | –
59 | O=C(COc1ccc(Cl)cc1)Nc1nnc(C2=COCCO2)o1 | active: 3.55 µM | –
60 | COc1ccc(NC(=O)CSc2nc3c(c(=O)n2-c2ccc(F)cc2)SCC3)cc1 | – | inactive: -30.5%
61 | COc1ccccc1OCC(=O)NCCSCc1ccccc1Cl | inconclusive: 35.5 µM [inhibitor, single point] | –
62 | Brc1ccccc1OCCCN1CCCC1 | active: 10 µM | –
63 | N=C(N)SCc1ccc(O)c([N+](=O)[O-])c1 | – | inactive: -8.09% [at 11.4 µM]
64 | Cc1cc(C)n(-c2ccc(C(=O)NC3=NCCS3)cc2)n1 | inconclusive: 5.01 µM [inhibitor, full curve, poor fit] | –
65 | CCOC(=O)N1CCN(S(=O)(=O)c2c[nH]c(C(=O)OC)c2)CC1 | – | inactive: -2.74%
66 | COc1ccc(C(=S)N2CCN(c3ccccc3Cl)CC2)cc1OC | inconclusive: 79.4 µM [inhibitor, partial curve] | –
67 | CCOCCCNS(=O)(=O)c1ccc(NC(=O)c2ccc(OC)c([N+](=O)[O-])c2)cc1 | active: 11.2 µM | –
68 | C=CCN1C(c2ccccc2)=CS/C1=C(/C#N)c1nnc(N2CCOCC2)n1-c1ccccc1 | inconclusive: 39.8 µM [inhibitor, full curve, poor fit] | –
69 | C/C(=N\Nc1ccccc1[N+](=O)[O-])c1ccc(N2CCOCC2)cc1 | inconclusive: 10 µM [inhibitor, partial curve] | –
